The campaign covered roughly 270,000 compounds. About 5,800 (2.1%) were called active. About 16% were inconclusive and are not listed. The call rests on the fitted dose curve; in most records, active means well fitted inhibition curve with a large enough effect; inconclusive means small, poorly fitted or top-dose-only effect; inactive means flat fitted curve, though single readings scatter. Only a part is listed here, and it is no random draw. Where a structure was tested more than once in an assay, its records may differ in their call.
On the % scale 0 is the no-effect control and ±100 the full control effect; potency means the concentration at half of the fitted maximal effect.

UniProt P10636, sequence (P10636 whole entry, looked up, the tested form may be a part): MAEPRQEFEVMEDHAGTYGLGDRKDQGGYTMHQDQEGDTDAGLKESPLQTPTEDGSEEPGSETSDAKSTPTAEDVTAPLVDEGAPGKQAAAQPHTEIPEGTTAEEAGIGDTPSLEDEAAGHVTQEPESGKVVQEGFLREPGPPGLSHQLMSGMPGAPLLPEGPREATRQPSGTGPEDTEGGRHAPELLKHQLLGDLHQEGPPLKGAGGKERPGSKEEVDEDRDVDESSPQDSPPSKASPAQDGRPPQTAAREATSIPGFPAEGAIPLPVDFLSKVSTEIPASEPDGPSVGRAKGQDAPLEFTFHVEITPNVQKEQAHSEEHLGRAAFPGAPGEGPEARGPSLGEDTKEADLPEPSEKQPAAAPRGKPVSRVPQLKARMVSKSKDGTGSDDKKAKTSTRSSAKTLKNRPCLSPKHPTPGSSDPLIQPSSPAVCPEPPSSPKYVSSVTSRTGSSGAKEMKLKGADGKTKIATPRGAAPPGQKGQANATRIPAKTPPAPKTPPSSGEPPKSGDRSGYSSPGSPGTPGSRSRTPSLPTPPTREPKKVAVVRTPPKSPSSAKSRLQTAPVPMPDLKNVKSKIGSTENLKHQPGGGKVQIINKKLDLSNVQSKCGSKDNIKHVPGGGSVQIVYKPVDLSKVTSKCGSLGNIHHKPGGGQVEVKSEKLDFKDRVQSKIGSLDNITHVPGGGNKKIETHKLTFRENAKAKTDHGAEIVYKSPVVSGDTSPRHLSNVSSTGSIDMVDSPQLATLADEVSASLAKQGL

For the assay, the target named is Microtubule-associated protein tau (Homo sapiens) (UniProt P10636). Briefly: qHTS for Inhibitors of Tau Fibril Formation, Thioflavin T Binding. Further: nearly all actives have a fitted effect of over 55% in size. Particulars: recombinant tau K18 P301L (four-repeat tau fragment), heparin-induced fibrillization, ThT fluorescence; series mostly up to 57.4 µM; activity, negative = inhibition: at the top concentration. Put shortly:
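Aggregation was driven by heparin (20 uM final) acting on recombinant tau […] bearing P301L in 100 mM sodium acetate pH 7; fibrils were detected with Thioflavin T.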
In the case of `CCCCC1=CC2=C(c3ccco3)C(=O)C(C)(OC(=O)c3ccc(OC)cc3)C(=O)C2=CN1C1CCCCC1` (stereo not drawn), the activity, negative = inhibition was inactive: 2.32% [at 11.5 µM].
Still for that read-out and setting: the value for `COc1ccccc1C(=O)n1nc(-c2cccnc2)nc1NCc1ccccc1` was inactive: -10.5%; that for `COc1ccc(-c2csc3nc(-c4ccccc4)oc(=O)c23)cc1OC` was inactive: 6.22%; that for `Cc1ccc(C(=O)N/C(=C/c2ccco2)C(=O)NCCc2c[nH]c3ccccc23)cc1` was inactive: -6.85%.
Turning to `COc1ccc2cc([C@H](C)C(=O)O)ccc2c1`, the Potency entry was “inactive”.
Same read-out and setting: to `COC(=O)c1ccc(-c2nc(O)c(C)s2)cc1` belongs active: 12.6 µM.
Turning to `CO[C@H]1COC(=O)C/C=C\[C@H](C)[C@@H](NS(=O)(=O)c2ccc(C)cc2)COC(=O)C/C=C\[C@@H]1C`, the activity, negative = inhibition was inactive: -6.06% [at 11.5 µM].
`O=C1OCCN1C(=O)[C@H]1[C@H](c2ccc([N+](=O)[O-])cc2)C(c2cccc(Cl)c2)=NN1c1ccccc1`: the “activity, negative = inhibition” value was inactive: -7.34%.
As to `Clc1ccc(C[n+]2csc3ccccc32)cc1`, the Potency was active: 22.4 µM.
For the compound `CC1=C(/C=C/C(C)=C/C=C/C(C)=C/CO)C(C)(C)CCC1`, the “activity, negative = inhibition” value was inactive: -10.4%.
With `Oc1ccc(-c2nc(-c3ccc(F)cc3)c(-c3ccncc3)[nH]2)cc1`, the Potency result is “inactive”.
For the compound `NC(Cc1cc(I)c(Oc2ccc(O)c(I)c2)c(I)c1)C(=O)O` (stereo not drawn), the “activity, negative = inhibition” value was inactive: -16.5%.
With `Cc1ccc(NC(=O)CSc2nc(C)c(Cc3ccccc3)c(=O)[nH]2)cc1`, the “activity, negative = inhibition” value was inactive: -16%.
Still for that read-out and setting: the value for `CC1=C(C(=O)O)N2C(=O)C(NC(=O)C(N)c3ccccc3)C2SC1` (stereo not drawn) was inactive: -10.4%.
For `COc1cc(NC(=O)CSc2c3c(nc4ccccc24)CCC3)cc(OC)c1OC`, the “activity, negative = inhibition” value is inactive: -15.5%.
The same measure, in the same setting: the value for `COC(=O)[C@H]1C[C@@H]1[C@H](NC(=O)Oc1ccc(F)cc1)c1ccccc1` was inactive: -1.71%.
Regarding `N[C@@H](Cc1c[nH]c2ccccc12)C(=O)O`, the “activity, negative = inhibition” value was inactive: -17.2%.
Turning to `C[C@@H]1C=C(C(=O)N2CCOCC2)O[C@H](OCc2ccc(CO)cc2)C1`, the “activity, negative = inhibition” value is inactive: -7.73%.
On to `COc1ccc(N)c2c1C(=O)c1ccccc1C2=O`, for which the Potency was active: 15.8 µM.
As for `CC(=O)OC[C@@H]1O[C@H](C/C=N\O[C@@H]2O[C@H](COC(C)=O)[C@@H](OC(C)=O)[C@H](OC(C)=O)[C@H]2OC(C)=O)C=C[C@@H]1OC(C)=O`, the activity, negative = inhibition is inactive: -2.98% [at 11.5 µM].
Turning to `S=C(NNc1cccc(Cl)c1)NC1CCCCC1`, the Potency was active: 25.1 µM.
`COc1ccc(N2CCN(C(=O)C3CCN(S(=O)(=O)c4cccs4)CC3)CC2)cc1`: the “activity, negative = inhibition” value was inactive: -15.6%.
For the compound `COC(=O)c1ccc(C(NC(=O)OCc2ccccc2)/C(F)=C/[C@@H](C)C(=O)NCc2ccc(OC)c(OC)c2)cc1` (stereo partly drawn), the “activity, negative = inhibition” value is inactive: -17.7%.
For `CC(=O)c1ccc(NC(=S)Nc2ccc3cn[nH]c3c2)cc1`, the Potency was active: 15.8 µM.
`O=C(Nc1ccccc1)N(O)c1ccc(Cl)cc1`: the Potency is active: 25.1 µM.
Take `CCc1ccc2nc3sc(C(=O)Nc4nnc(CC)s4)c(N)c3cc2c1`: the Potency was active: 3.98 µM.
As to `C=CCN1C(=O)/C(=C2/C(=O)N(CC(=O)O)c3ccccc32)S/C1=N/c1nccs1`, the Potency was active: 7.08 µM.
In the case of `O=C(NCc1ccccc1)C1=C[C@H](c2coc3ccccc3c2=O)C[C@H](OCc2ccc(CO)cc2)O1`, the “activity, negative = inhibition” value was inactive: -12.5%.
Consider `CC(C)c1ccc2c(c1)CCC1C(C)(CN)CCCC21C` (stereo not drawn), for which the “activity, negative = inhibition” value was inactive: -4.43%.
On the same count and under the same terms, the value for `N#C/C(=C\c1ccc(N2CCOCC2)o1)C(=O)N1CCOCC1` was inactive: -14.6%.
For `C[C@@H]1C[C@H]2[C@@H]3CCC4=CC(=O)C=C[C@]4(C)[C@@]3(F)[C@@H](O)C[C@]2(C)[C@@]1(O)C(=O)COP(=O)(O)O`, the Potency entry was “inactive”.
For the compound `CCC[C@@H]1C[C@@]1(CCC)[C@@H](NP(=O)(c1ccccc1)c1ccccc1)c1ccc(C(=O)OC)cc1`, the “activity, negative = inhibition” value is inactive: -26.3%.
Still for that read-out and setting: the value for `CCCCC1=CC2=CC(=O)C(C)(OC(=O)CC)C(=O)C2=CN1CCc1c[nH]c2ccccc12` (stereo not drawn) was inactive: 7.83% [at 11.5 µM].
As to `CC(=O)N(Cc1ccc(F)cc1)C1=C(NCc2ccccc2)C(=O)c2ccccc2C1=O`, the Potency is active: 28.2 µM.
For `O=[N+]([O-])c1ccc2cn[nH]c2c1`, the “activity, negative = inhibition” value is inactive: 0.0145%.
On the same count and under the same terms, to `CC(=O)c1ccc(N2CCN(C(=O)Nc3ccc(C)cc3)CC2)cc1` belongs inactive: -5.47%.
For `CCCCC/C=C/C=C1/C(=O)C=C[C@@H]1C/C=C\CCCC(=O)O`, the Potency result was “inactive”.
Same read-out and setting: the value for `COC(=O)C1(C(C)=O)CC2=CC[C@H]3C(=O)N(c4ccccc4)C(=O)[C@H]3[C@@H]2Cc2ccccc2[C@@H]1C[N+](=O)[O-]` (stereo partly drawn) was “inactive”.
With `COc1cccc(-c2cc(=O)c3cc(NC(=O)c4ccccc4)ccc3[nH]2)c1`, the “activity, negative = inhibition” value was inactive: -22.7% [at 81.4 µM].
With `Cc1ccccc1NC(=O)CSc1nc2ccccc2c2nc(CCn3cncc3C)nn12`, the “activity, negative = inhibition” value is inactive: 14.9%.
On the same count and under the same terms, to `Cc1cc(C)cc(NC(=O)CSc2nc3c(c(=O)[nH]2)CN(Cc2ccc(F)cc2)CC3)c1` belongs inactive: -2.61%.
Regarding `Nc1c2ccccc2nc2ccccc12`, the “activity, negative = inhibition” value was inactive: -6.89%.
For the compound `CO[C@@H]1COC(=O)C/C=C\[C@H](C)[C@H](OC)COC(=O)[C@H](C)NC(=O)C/C=C\[C@H]1C`, the activity, negative = inhibition is inactive: -3.49% [at 11.5 µM].
Consider `COc1ccc2c(c1)c(CC(=O)O)c(C)n2C(=O)c1ccc(Cl)cc1`, for which the Potency result was “inactive”.
Regarding `Cn1cc(C(=O)N/N=C/C(Br)=C\c2ccccc2)ccc1=O`, the “activity, negative = inhibition” value was inactive: -8.44%.
Turning to `CC(C)Cn1c(N)c(C(=O)COC(=O)c2cc(-c3ccco3)nc3ccccc23)c(=O)n(C)c1=O`, the “activity, negative = inhibition” value was inactive: -14.2%.
Turning to `CCN(CC)C(=O)/C(=C\c1ccc2c(c1)OCO2)NC(=O)c1ccc(Br)cc1`, the “activity, negative = inhibition” value is inactive: -8.77%.
For `COc1ccc(O[C@H]2C=C[C@@H](c3ccccc3)O[C@H]2COC(=O)CC/C(C)=N/O[C@@H]2O[C@H](COC(C)=O)[C@H](OC(C)=O)[C@H](OC(C)=O)[C@H]2OC(C)=O)cc1`, the activity, negative = inhibition was inactive: -5.68% [at 11.5 µM].
Same read-out and setting: the value for `CC(C)C[C@H](NC(=O)[C@H](O)[C@H](N)Cc1ccccc1)C(=O)O` was inactive: -3.5%; that for `CCCn1c(N)[n+](CC(=O)c2ccco2)c2ccccc21` was inactive: -2.79%.
`O=C(C1=C[C@H](c2coc3ccccc3c2=O)C[C@H](OCCCCO)O1)N1CCN(Cc2ccccc2)CC1`: the “activity, negative = inhibition” value was inactive: -5.55%.
In the case of `CN1CCN(CCCN2c3ccccc3Sc3ccc(C(F)(F)F)cc32)CC1`, the “activity, negative = inhibition” value was inactive: -18.8%.
In the case of `COC(=O)Nc1nc2ccc(C(=O)c3cccs3)cc2[nH]1`, the Potency result is “inactive”.
For `CN=C(NC#N)NCCSCc1csc(N=C(N)N)n1`, the “activity, negative = inhibition” value is inactive: -4.55%.
The same measure, in the same setting: to `CCCC(=O)O[C@@H]1C[C@@H](C)N(C(=O)c2ccccc2)c2ccc(C)cc21` belongs inactive: -13.4%.
On the same count and under the same terms, the value for `CC1=C(C(=O)OCc2ccccc2)C(c2ccc(Cl)cc2)NC(=O)N1CCCCCC(=O)O` (stereo not drawn) was inactive: -15.1%; that for `CCOc1cc(/C=C2/C(=O)ON=C2C)ccc1OCc1ccccc1` was inactive: -16.3%.
Same read-out and setting: the value for `CCCCCCCCCCCCCCC[C@H](O)[C@H](N)CO` was inactive: -7.91%; that for `Oc1c(I)cc(Cl)c2cccnc12` was inactive: -20.1%; that for `O=C(NCc1ccccc1)[C@H]1C[C@@H]1[C@H](NP(=O)(c1ccccc1)c1ccccc1)c1ccccc1` was inactive: 11%.
On to `COc1cccc(-n2c(C)c3c(OC)cccc(=O)c3c2C)c1`, for which the Potency is active: 25.1 µM.
As for `COCCCNC(=O)CSc1nc2cc3c(cc2c(=O)n1CCCC(=O)NCc1ccc(OC)cc1)OCO3`, the “activity, negative = inhibition” value was inactive: 5.56%.
The same measure, in the same setting: the value for `COc1ccc(Nc2ncc(C(=O)N3CCN(c4ccc(F)cc4)CC3)c3ccccc23)cc1` was inactive: -10.9%.
With `O=C(O)COc1ccc(/C=C/c2ccc3cccc([N+](=O)[O-])c3n2)cc1`, the Potency is active: 7.94 µM.
As for `O=C(CSc1nc2ccccc2[nH]1)N/N=C/C=C\c1ccccc1[N+](=O)[O-]`, the “activity, negative = inhibition” value is inactive: -1.96%.
Take `O=C1/C(=C/c2cccnc2)SC(=S)N1Nc1ccccc1`: the Potency is active: 28.2 µM.
For `CCOC(=O)c1cc2c(=O)n3ccccc3nc2n(CCOC)c1=NC(=O)c1c(-c2c(F)cccc2Cl)noc1C`, the “activity, negative = inhibition” value is inactive: -14.9%.
For `CC1(OC(=O)C2CCCC2)C(=O)C=C2C=C(c3ccsc3)N(CCc3c[nH]c4ccccc34)C=C2C1=O` (stereo not drawn), the activity, negative = inhibition is inactive: -5.82% [at 11.5 µM].
Still for that read-out and setting: to `Cc1ccccc1/C=C\c1nc2ccccc2c(=O)[nH]1` belongs inactive: -7.04%.
In the case of `O=C(C1=C[C@@H](c2csc3ccccc23)C[C@@H](OCc2ccc(CO)cc2)O1)N1CCN(Cc2ccccc2)CC1`, the “activity, negative = inhibition” value was inactive: -17%.
On to `CCOC(=O)c1cc2c(=O)n3ccccc3nc2n(Cc2ccco2)c1=NC(=O)c1ccc(OC)cc1`, for which the “activity, negative = inhibition” value is inactive: -10.3%.
Regarding `CCN(CC)c1ccc(/C=N/Nc2nc3ccccc3[nH]2)c(O)c1`, the Potency was active: 14.1 µM.
Regarding `C[C@@H](C(=O)NCc1ccccc1)[C@H]1C[C@]1(C)[C@H](NC(=O)OCc1ccccc1)c1ccccc1`, the Potency entry was “inactive”.
The same measure, in the same setting: to `COc1cc(/C=N/NC(=O)[C@H](Cc2c[nH]c3ccccc23)NC(=O)OCC(C)C)cc([N+](=O)[O-])c1O` belongs active: 14.1 µM.
With `C=C(C)C1(O)OC(=O)C=C1OC` (stereo not drawn), the “activity, negative = inhibition” value is inactive: -3.56%.
For `CC12CCC3c4ccc(O)cc4CCC3C1CCC2=O` (stereo not drawn), the “activity, negative = inhibition” value was inactive: -2.25%.
Turning to `NCCCNCCCCNCCCN`, the “activity, negative = inhibition” value is inactive: -3.23%.
On the same count and under the same terms, to `CC1=NN(c2ccccc2)C(=O)C1` belongs inactive: -21%.
As to `CC(=O)CC1OC(=O)C(Br)=C1NCc1ccccc1` (stereo not drawn), the Potency is active: 8.91 µM.
Still for that read-out and setting: to `N#C/C(=C\c1ccccc1)C(=O)Nc1sc2c(c1C(N)=O)CCC2` belongs active: 1.41 µM; to `N#Cc1c(NC(=O)c2ccc(Br)o2)n(-c2ccccc2)c2nc3ccccc3nc12`, active: 25.1 µM; to `CC(=O)Nc1ccc2nc3c(=O)n(C)c(=O)n(C)c3nc2c1`, active: 17.8 µM.
In the case of `C#CCNC(=O)C1=C[C@H](c2ccc(Br)cc2)C[C@H](OCCCCO)O1`, the “activity, negative = inhibition” value is inactive: -13.3%.
With `CC(C)[N+](C)(CCOC(=O)C1c2ccccc2Oc2ccccc21)C(C)C`, the Potency entry was “inactive”.
Regarding `C1COC(NC(C2CC2)C2CC2)=N1`, the Potency result was “inactive”.
Regarding `COC(=O)CCCC1=CC2=C(c3ccccc3)C(=O)C(C)(OC(=O)C3CCCC3)C(=O)C2=CN1c1ccc(OC)cc1` (stereo not drawn), the activity, negative = inhibition was inactive: 5.82% [at 11.5 µM].
For `C[C@@H](C(=O)NCc1ccc(S(C)(=O)=O)cc1)[C@H]1C[C@]1(C)[C@H](NC(=O)OCc1ccccc1)c1ccccc1`, the “activity, negative = inhibition” value is inactive: -12.4%.
On the same count and under the same terms, the value for `COCCn1c(C(=O)N2CCCC2)cc2c1C[C@H]1CN(C(=O)c3ccccc3)[C@@](Cc3ccc(F)cc3)(C(=O)OC)[C@@H]21` was inactive: -8.82%.

Values taken from PubChem BioAssay AID1460 (National Center for Advancing Translational Sciences (NCATS), 2008).
